Values joined by “and” are separate entries in the source; they are usually repeats but may differ in a detail not shown here. Identical values can stand only once. Among all 420,000 compounds or so, about 64,000 (15%) were called active. Inconclusive results, whose numbers are uncertain, are shown with a selection of clear calls. Calls come from the whole dose curve; as a rule, active = well fitted inhibition curve with a large enough effect; inconclusive = small, poorly fitted or top-dose-only effect; inactive = flat fitted curve, though single readings scatter. A potency beside an inconclusive call is a rough fit, not a confirmed value. The source holds several records for some structures; these can differ, active in one and inactive in another.
Assay: qHTS for Inhibitors of human tyrosyl-DNA phosphodiesterase 1 (TDP1): qHTS in cells in absence of CPT; note: nearly all actives have a fitted effect of over 55% in size
Conditions: DT40 Tdp1-/- hTDP1 cells, no CPT, ATP luminescence, 48 h; activity change, negative = growth inhibition: at 46.2 µM (top of the series) unless noted
Procedure, shortened: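 Chicken DT40 Tdp1-/- cells stably complemented with human TDP1 were seeded at 400 cells/well with DMSO in place of 20 nM camptothecin. After compound pinning, cells grew at least 48 hr at 37 °C; viability read by CellTiter-Glo luminescence.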
% is set by controls: 0 for no effect and ±100 for the full control effect; potency is the fitted concentration of half-maximal effect; tags give direction and shape of the fitted curve.

SMILES | Potency | activity change, negative = growth inhibition
COc1ccc(CNc2nc(-c3ccco3)nn2S(=O)(=O)c2ccc3ccccc3c2)cc1OC | inconclusive: 29.1 µM [inhibitor, single point] | 
O=C(c1ccccc1)C1OC1C(=O)c1ccccc1 (stereo not drawn) | active: 6.51 µM | 
C=C(NC(=O)C(=C)NC(=O)c1csc(C2=NC3c4csc(n4)C4NC(=O)c5csc(n5)C(C(C)(O)C(C)O)NC(=O)C5CSC(=N5)/C(=C/C)NC(=O)C(C(C)O)NC(=O)c5csc(n5)C3(CC2)NC(=O)C(C)NC(=O)C(=C)NC(=O)C(=C)NC(=O)C(C(C)C)NC2C=Cc3c(C(C)O)cc(nc3C2O)C(=O)OC4C)n1)C(N)=O (stereo not drawn) | active: 0.92 µM | 
CCOC(=O)C1(CCOC)CCN(C(=O)c2ccccc2-c2cccc(C)c2)CC1 | inconclusive: 29.1 µM [inhibitor, single point] | 
COc1ccc(-c2cnc3c(NC=O)cc(-c4cccc(NS(C)(=O)=O)c4)cn23)cc1OC | active: 3.66 µM | 
CCN1C(=O)C(O)(CC(=O)c2ccccn2)c2ccccc21 (stereo not drawn) | active: 5.17 µM | 
COc1ccc(-c2cc(C(=O)OCC(=O)N3CCCCC3)c3ccccc3n2)cc1OC | active: 20.6 µM | 
CCc1ccc(NC(=O)Cn2c(=O)n(Cc3ccc4c(c3)OCO4)c(=O)c3oc4ccccc4c32)cc1 | inconclusive: 18.4 µM [inhibitor, single point] | 
O=C(CCC(=O)OCc1ccc(Br)cc1)Nc1ccccc1 | inconclusive: 29.1 µM [inhibitor, single point] | 
Cc1noc(C)c1S(=O)(=O)N(C)C[C@H]1OCc2cn(nn2)CCCC(=O)N([C@H](C)CO)C[C@@H]1C | inactive | 
c1ccc(CSc2nnc(Cc3ccccc3)o2)cc1 | inconclusive: 23.1 µM [inhibitor, single point] | 
Fc1ccc(SCCc2ccncc2)cc1 | inactive and active: 18.4 µM | 
CC(C)(C)OC(=O)NC1CC2CCCC(C1)N2Cc1ccccc1 (stereo not drawn) | inactive | 
CC1CCCCC1NC(=O)COC(=O)C12CC3CC(CC(Cl)(C3)C1)C2 (stereo not drawn) | inactive | 
CC1(C)Cc2ccccc2-c2nc(NCCCO)n(-c3ccccc3)c(=O)c21 | active: 14.6 µM | 
Cc1cc2oc(C(=O)NCCc3ccc(S(N)(=O)=O)cc3)cc(=O)c2cc1C | inconclusive: 29.1 µM [inhibitor, single point] | 
CCc1nc2ccc(C(=O)NCc3ccc4c(c3)OCO4)cn2c1N(CC)CCN(C)C | inactive | 
C[C@H](O)[C@@H]1C(=O)N2CCc3ccc(-c4ccccc4)cc3[C@@H]2C[C@@H]1N(C)C(=O)NC1CCCCC1 | inconclusive: 20.6 µM [inhibitor, partial curve] | 
C[C@H]1CN=C(N(C)C)N1CCCCc1ccccc1 | active: 14.6 µM | 
Cc1ccc(-c2nnc(Cc3ccc(Cl)cc3)o2)cc1 | inconclusive: 29.1 µM [inhibitor, single point] | 
CC(=O)Nc1ccc(NC(=O)CSc2cn(CC(=O)N(C(C)C)C(C)C)c3ccccc23)cc1 | inconclusive: 29.1 µM [inhibitor, single point] | 
C=CCc1ccccc1OCC(O)CNC1CCCC1 (stereo not drawn) | inconclusive: 18.4 µM [inhibitor, single point] | 
O=C1CCC(C(=O)N2CCCCO2)CN1Cc1ccc(Cl)cc1 (stereo not drawn) | inactive | 

SMILES | Potency | activity change, negative = growth inhibition
CCC(OC(=O)C1=Cc2ccccc2OC1)C(=O)NCc1ccco1 (stereo not drawn) | active: 25.9 µM | 
COC(=O)c1cc2occc2n1Cc1nc(-c2ccccc2C)oc1C | inactive and inconclusive: 29.1 µM [inhibitor, single point] | 
CN(Cc1ccccc1)C(=O)COC(=O)c1ccc[nH]c1=O | inactive | 
COC(=O)c1ccc(COc2ncnc3ccccc23)o1 | inactive | 
CCOC(=O)C1=C(COC(=O)/C=C/c2ccccc2)NC(=O)NC1C (stereo not drawn) | inactive | 
CC(=O)Nc1ccc(Nc2nc(-c3sc(NC(C)=O)nc3C)cs2)cc1 | active: 13 µM | 
COc1cccc(NC(=O)N(Cc2ccco2)C(C)c2cccs2)c1 (stereo not drawn) | inactive | 
COc1cc(C(=O)OCc2csc(CC(=O)Nc3ccccc3C)n2)ccc1OCC(C)C | inconclusive: 29.1 µM [inhibitor, single point] | 
O=C(CC1N=C2c3ccccc3N=C(SCc3ccc(F)cc3)N2C1=O)NCc1ccco1 (stereo not drawn) | inconclusive: 29.1 µM [inhibitor, single point] | 
CC(C)(C)c1cc2cccnc2n1Cc1cccc(F)c1 | inconclusive: 7.31 µM [inhibitor, full curve, poor fit] | 
CCOc1ccccc1CN1C(=O)c2ccccc2C1C(=O)NC1CCCCCC1 (stereo not drawn) | inconclusive: 20.6 µM [inhibitor, single point] | 
O=[N+]([O-])c1cccc(OCC(O)CN2CCN(S(=O)(=O)c3cc(Cl)ccc3Cl)CC2)c1 (stereo not drawn) | inconclusive: 20.6 µM [inhibitor, single point] | 
COc1cc(/C=C/c2nc3ccccc3c(=O)[nH]2)ccc1OC(F)F | inactive | 
COc1ccc(OCCn2cc(C(=O)c3ccco3)c3ccccc32)cc1 | active: 25.9 µM | 
COc1cccc(NC(=O)Cn2c3ccccc3c3nc4n(c(=O)c32)CCCS4)c1 | inconclusive: 23.1 µM [inhibitor, single point] | 
COc1ccc(C(CC(=O)N2CCCCC2)c2c(OC)cc(OC)c3ccc(=O)oc23)cc1 (stereo not drawn) | inconclusive: 20.6 µM [inhibitor, single point] | 
Cc1onc(-c2ccccc2)c1CNC(=O)Nc1ccccc1 |  | inconclusive: -34.3% [inhibitor]
NC(=O)c1nnn(-c2nonc2N)c1-c1ccc([N+](=O)[O-])cc1 | inconclusive: 25.9 µM [inhibitor, single point] | 
CCOC(=O)c1cc2c(=O)n3ccccc3nc2n(C(C)C)c1=NC(=O)c1ccncc1 | inconclusive: 11.6 µM [inhibitor, partial curve, poor fit] | 
COc1ccccc1CNc1ncnc2cc(OC)c(OC)cc12 | active: 23.1 µM | 
CCC(C)Sc1nc2c([nH]c3ccccc32)c(=O)n1C (stereo not drawn) | inconclusive: 29.1 µM [inhibitor, single point] and inconclusive: 23.1 µM [inhibitor, single point] | 
COc1ccc2[nH]c(C(=O)N3CCCN(Cc4ccc(F)cc4)CC3)cc2c1 | inconclusive: 29.1 µM [inhibitor, single point] | 
COc1ccc(C2CC(=O)c3cnn(-c4nc(C)cc(C)n4)c3C2)cc1 (stereo not drawn) | active: 16.4 µM | 

SMILES | Potency | activity change, negative = growth inhibition
CC(=O)N1c2ccc(S(=O)(=O)N3CCN(c4cc(Cl)ccc4C)CC3)cc2CC1C (stereo not drawn) | inconclusive: 7.31 µM [inhibitor, partial curve] | 
CCC(c1nnc(SCC(=O)Nc2ccc(S(N)(=O)=O)cc2)n1Cc1ccccc1)N(C)C (stereo not drawn) | inactive | 
c1ccc(Cc2nc3ccccc3n2Cc2ccccc2)cc1 | inconclusive: 20.6 µM [inhibitor, single point] | 
CCOC(=O)c1ccccc1NC(=O)c1ccc2c(SCC(=O)O)c3c(nc2c1)CCCC3 | inconclusive: 11.6 µM [inhibitor, partial curve, poor fit] | 
O=c1c(-c2ccc([N+](=O)[O-])cc2)coc2c(O)c(O)ccc12 | inconclusive: 29.1 µM [inhibitor, single point] | 
O=C(CN1CCN(Cc2ccc3c(c2)OCO3)CC1)Nc1ccc2c(c1)OCCO2 | inconclusive: 20.6 µM [inhibitor, single point] | 
CC1=C(C(=O)N(C)C)CC(CC(=O)NCC2CCCCC2)C(=O)N1Cc1ccc(F)cc1 (stereo not drawn) | inconclusive: 18.4 µM [inhibitor, single point] | 
CCCCn1nnnc1C(c1cc2ccccc2o1)N1CCN(CC(=O)N2CCCC2)CC1 (stereo not drawn) |  | inconclusive: -32% [inhibitor]
Cc1ccc(NCC(=O)N=Nc2c(O)[nH]c3ccc([N+](=O)[O-])cc23)cc1 | active: 23.1 µM | 
CCOc1cc(N2CCOCC2)c(OCC)cc1NC(=O)[C@H](C)NC(=O)c1ccco1 | inconclusive: 14.6 µM [inhibitor, partial curve] | 
COC(=O)c1cccc(-n2sc3ccccc3c2=O)c1 | active: 3.26 µM | 
Cc1[nH]c2ccc(C(=O)OC(C)C(=O)NCc3ccccc3)cc2c1C (stereo not drawn) | active: 6.51 µM | 
OCCNC(=S)Nc1ccc(Oc2ccccc2)cc1 | inactive | 
COc1cc(C)c(Cl)cc1S(=O)(=O)NCCCN1CCOCC1 | inactive | 
COc1ccc(NC(=O)COC(=O)c2ccc(OCc3ccc(Cl)cc3Cl)c(OC)c2)c(OC)c1 | inconclusive: 29.1 µM [inhibitor, single point] | 
CCCN(CCC)C(=O)CC(c1ccccc1)c1ccco1 (stereo not drawn) | inconclusive: 16.4 µM [inhibitor, partial curve] | 
CCOC(=O)c1oc2ccccc2c1NC(=O)COc1ccc(F)cc1 |  | inconclusive: -32.9% [inhibitor]
COc1ccc(C2/C=C\CN(S(=O)(=O)/C=C/c3ccccc3)[C@H](Cc3ccccc3)C(=O)N2Cc2ccc(F)cc2)cc1 (stereo partly drawn) | inconclusive: 20.6 µM [inhibitor, single point] | 
O=[N+]([O-])c1ccc(C=CC=Cc2ccccc2)cc1 | inconclusive: 29.1 µM [inhibitor, single point] | 
Fc1ccc(N2C(=S)SC(=Nc3ccccc3)C2=Nc2ccccc2)cc1 | inconclusive: 23.1 µM [inhibitor, single point] | 
COc1ccc(CC(=O)OCC(=O)c2ccc(OC)c(OC)c2)cc1 | inactive | 
COc1ccc(OC)c(NC(=O)C2CC(/C=C/c3ccccc3)=NO2)c1 (stereo not drawn) | inactive | 
